Data published in publication PMC4336329 (PLoS ONE, 2015).
Among all 310,000 compounds or so, about 2,200 (0.71%) showed an effect of 50% or more. Effects have a minus sign here. The list shows a part of the results.

target: human ether-à-go-go-related gene (hERG) potassium channel (human, UniProt Q12809); experiment: primary screen, population patch clamp on CHO cells stably expressing hERG
Sequence (Q12809 whole entry, looked up): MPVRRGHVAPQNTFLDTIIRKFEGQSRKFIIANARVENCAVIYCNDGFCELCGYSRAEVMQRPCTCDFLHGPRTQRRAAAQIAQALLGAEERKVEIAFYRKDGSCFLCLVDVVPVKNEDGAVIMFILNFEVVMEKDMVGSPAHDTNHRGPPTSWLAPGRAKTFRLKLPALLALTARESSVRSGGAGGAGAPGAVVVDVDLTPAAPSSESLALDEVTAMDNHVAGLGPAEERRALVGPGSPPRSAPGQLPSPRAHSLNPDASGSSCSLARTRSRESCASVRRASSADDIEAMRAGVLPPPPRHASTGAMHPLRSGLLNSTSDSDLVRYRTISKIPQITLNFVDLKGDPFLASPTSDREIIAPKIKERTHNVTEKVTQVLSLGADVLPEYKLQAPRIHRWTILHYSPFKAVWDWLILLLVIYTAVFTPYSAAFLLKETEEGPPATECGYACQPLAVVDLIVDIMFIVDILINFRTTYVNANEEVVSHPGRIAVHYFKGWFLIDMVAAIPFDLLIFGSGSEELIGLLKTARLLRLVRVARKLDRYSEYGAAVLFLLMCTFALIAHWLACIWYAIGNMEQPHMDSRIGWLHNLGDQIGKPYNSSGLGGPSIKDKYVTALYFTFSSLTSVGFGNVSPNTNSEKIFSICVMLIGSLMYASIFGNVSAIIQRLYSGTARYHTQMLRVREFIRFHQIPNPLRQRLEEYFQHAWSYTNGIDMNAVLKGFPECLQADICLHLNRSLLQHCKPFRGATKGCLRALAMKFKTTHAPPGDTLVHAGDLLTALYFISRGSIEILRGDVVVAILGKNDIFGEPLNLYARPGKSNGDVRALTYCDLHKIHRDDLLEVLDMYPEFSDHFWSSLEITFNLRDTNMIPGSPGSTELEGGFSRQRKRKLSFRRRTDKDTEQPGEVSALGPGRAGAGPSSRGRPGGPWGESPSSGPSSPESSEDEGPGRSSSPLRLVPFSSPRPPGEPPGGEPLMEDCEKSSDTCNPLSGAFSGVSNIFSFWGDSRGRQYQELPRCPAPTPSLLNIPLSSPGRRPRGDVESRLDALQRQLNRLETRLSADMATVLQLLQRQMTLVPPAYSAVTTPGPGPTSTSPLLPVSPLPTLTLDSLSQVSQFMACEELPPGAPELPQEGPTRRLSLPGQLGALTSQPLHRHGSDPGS

Structure (SMILES)	hERG current change (%, negative = inhibition) at 1uM
CSCCC(NS(=O)(=O)c1ccccc1F)C(=O)NNC(=O)c1csc(N2CCOCC2)n1 (stereo not drawn)	10.2%
CCOC(=O)C1=CSC2=NS(=O)(=O)CCN12	9.59%
Cc1cc(C)nc(SCCS(=O)(=O)Cc2ccc(Cl)cc2)n1	7.47%
CC12CC(NC(=O)N1CCc1ccccc1)c1cc(Cl)ccc1O2 (stereo not drawn)	13.8%
CCOC(=O)N1CCC(N(CCOC)C(=O)Nc2ccc(Cl)cc2)CC1	-10.4%
O=C(CSc1nnc(CNc2ccccc2)o1)N1CCN(C(=O)c2ccco2)CC1	9.2%
CN(C)CCCN(C(=O)c1cccs1)c1nc(-c2ccccc2)cs1	-50.7%
O=C(O)C1CCCN1S(=O)(=O)c1ccc2[nH]c(=O)c(=O)[nH]c2c1 (stereo not drawn)	10.3%
Cc1ccc(N(CCC#N)C(=O)COC(=O)C2=COCCO2)cc1	10.3%
COC(=O)c1cc(C(=O)OCC(=O)N(C)c2ccccc2)cc([N+](=O)[O-])c1	4.84%
COc1ccc(N2CCN(c3oc(-c4ccco4)nc3C#N)CC2)cc1	-25.2%
CCN(CC)CC(C)CNC(=O)CC(C(=O)N1CCc2ccccc21)n1ccnc1 (stereo not drawn)	9.73%
COc1ccc(C(CC(=O)N2CCCCC2)c2c(OC)cc(OC)c3c(-c4ccccc4)cc(=O)oc23)cc1 (stereo not drawn)	6.91%
NC(=O)N1c2ccccc2C=Cc2ccccc21	2%
CCc1ccc(C(C)NC(=O)/C(C#N)=C\c2cn[nH]c2-c2ccccc2)cc1 (stereo not drawn)	6.15%
Cc1cc(NC(=O)CSc2nnc(-c3ccc(Cl)s3)o2)no1	5.53%
Cc1ccc(S(=O)(=O)N2C(=O)CCC2C(=O)N2CCN(C)CC2)cc1 (stereo not drawn)	12%
Cc1ccc(-c2nc3ccccn3c2NC(=O)c2ccco2)cc1	18.6%
Cc1ccc(C)c(Cn2nnc3c(=O)[nH]c(C4CCN(C(=O)c5cccs5)CC4)nc32)c1	14.2%
COc1ccc(N)c2c1C(=O)c1ccccc1C2=O	14.2%
CC(=O)c1cccc(NC(=O)c2ccc(OCc3c(C)noc3C)cc2)c1	10.4%
COC(=O)c1cc(OC)c(OC)cc1NC(=O)Cc1cccs1	3.6%
Nc1ccc(C(=O)N(CCO)CCO)cc1	15.5%

Structure (SMILES)	hERG current change (%, negative = inhibition) at 1uM
Cc1cc(NC(=O)CN2C(=O)NC3(CCCCC3C)C2=O)no1 (stereo not drawn)	1.79%
Cc1ccc(C)c(NC(=O)CN(C)S(=O)(=O)c2ccc(F)cc2)c1	13.5%
Cn1cnnc1SCCNS(=O)(=O)c1ccccc1	7.79%
O=C(Nc1ccc(OC(F)(F)F)cc1)C1CCCN(S(=O)(=O)c2cccnc2)C1 (stereo not drawn)	-4.09%
Cc1cccc(NC(=O)c2ccc3ccccc3n2)c1C	16.9%
CNS(=O)(=O)c1ccc(Cl)nc1	-0.39%
CC(C)(C)NC(=O)NC(=O)CN1CCN(S(=O)(=O)c2ccccc2)CC1	13.8%
COc1ccc(Br)c(OC)c1C(=O)NC(=O)Nc1nc(C)cc(C)n1	2.31%
CCOc1ccc(N2CC(C(=O)Nc3nnc(SCCOC)s3)CC2=O)cc1 (stereo not drawn)	-16.9%
ClCc1csc(-c2ccccc2Cl)n1	4.13%
CC(C)c1cccc(C(C)C)c1OC(=O)[C@H]1OC(c2ccc(Br)cc2)=C[C@@H]1c1ccc(Br)cc1	12.1%
COc1ccc(-c2nc(CSCC(=O)N3CCC(C(N)=O)CC3)c(C)o2)cc1OC	6.45%
CC(=O)Nc1ccc(OCC(O)CNC(C)C)cc1 (stereo not drawn)	16.7%
CCc1ccc2oc(=O)cc(CN3CCCCC3C)c2c1.Cl (stereo not drawn)	0.558%
COc1ccc(S(=O)(=O)N(C)CC(=O)Nc2ccccc2C(F)(F)F)cc1	8.98%
COc1cc(S(=O)(=O)NCc2ccc3c(c2)OCO3)c(OC)cc1C	9.84%
COc1ccc(C(=O)NC(=C(Cl)Cl)S(=O)(=O)c2ccc(C)cc2)cc1	9.54%
COc1cc(NC(=O)NS(=O)(=O)c2ccc(C)cc2)cc(OC)c1	5.75%
COc1ccc(C2Nc3ccccc3C(=O)N2Cc2ccccc2)cc1 (stereo not drawn)	9.24%
O=C(NCCOc1ccccc1F)c1ccc2c(=O)n3c(nc2c1)CCC3	8.73%
CN(C(=O)CCc1nnc(Cc2ccc(-c3ccccc3)cc2)o1)C1CCOCC1	-4.53%
COc1ccc(CNC(=O)CCc2nnc3ccc(NCCCN4CCCC4=O)nn23)cc1	6.79%
